Experimental data published in patent EP1914237B1 (priority 1999, dated 2001).

Key:
HSV-1 = assay type: cell-based; details: Table 7; CC50/EC50
HCMV [1] = assay: microbe, parasite or virus in culture; details: Human betaherpesvirus 5, MRC5, 120 h, read-out: HCMV EC50, µM
HCMV [2] = details: Table 2; CC50/EC50

| SMILES | Selectivity Index (HSV-1) | EC50 (HCMV [1]) | Selectivity Index (HCMV [2]) |
| --- | --- | --- | --- |
| Nc1ccn(C[C@@H](CO)OCP(=O)(O)O)c(=O)n1 [CDV, cidofovir, reference compound] | > 800 | 0.45 ± 0.09 µM | >2174 |
| CCCCCCCCCCCCCCCCOCCCOP(=O)(O)COCCn1cnc2c(N)ncnc21 [HDP-Adefovir] | – | 0.01 µM | – |
| Nc1ccn(C[C@H]2COP(=O)(O)CO2)c(=O)n1 [cCDV, cyclic cidofovir, reference compound] | >475 | 0.47 ± 0.13 µM | >2128 |
